Measured values: publication PMC5836133
The list shows a part of the results. At the low end of the ranking the order means little.

What follows are sequences tested on T1, GST-NbGlk1(82-244) (assay: protein-binding microarray). Conditions: NbGlk1 is a Golden2-like transcription factor of Nicotiana benthamiana; high values mean tight binding; most listed sequences are background and not binding sites; double strand, one strand shown.
T1 sequence: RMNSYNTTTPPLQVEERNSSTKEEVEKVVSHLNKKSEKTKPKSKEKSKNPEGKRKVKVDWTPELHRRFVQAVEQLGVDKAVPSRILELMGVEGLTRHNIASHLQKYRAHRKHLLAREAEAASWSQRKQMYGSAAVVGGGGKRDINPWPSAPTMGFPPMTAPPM
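Further: rank-based score ranging −0.5 to +0.5 with E above 0.45 taken as significant binding.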

| Sequence | binding signal |
| --- | --- |
| AAAGTCTG | -0.0811 E-score |
| ATTATTTG | 0.123 E-score |
| ACTAGGGG | -0.124 E-score |
| CAATCTGG | 0.414 E-score |
| AGTGACTC | -0.23 E-score |
| CACTCCAA | -0.123 E-score |
| AGCAGCCG | -0.256 E-score |
| AATTGAAA | 0.226 E-score |
| ATGCGTAG | -0.0731 E-score |
| AATTAGAC | -0.0551 E-score |
| AACGTCGT | 0.0186 E-score |
| CACCCGAC | -0.276 E-score |
| AGCCAACC | -0.16 E-score |
| ATGTTCTG | 0.0456 E-score |
| ACATGTAC | -0.0135 E-score |
| ACGGCAAT | 0.171 E-score |
| ATCTAAAT | 0.335 E-score |
| ACACACCG | -0.053 E-score |
| ACAACCCG | -0.172 E-score |
| AAGTAAAG | -0.0314 E-score |
| ATGTTTCC | 0.00555 E-score |
| AAGGCCGA | -0.161 E-score |
| ATTTTCAC | 0.34 E-score |
| ACTATGGC | -0.224 E-score |

| Sequence | binding signal |
| --- | --- |
| CACCTGCC | -0.262 E-score |
| CAACTCTC | -0.084 E-score |
| AGTCATTC | -0.063 E-score |
| ACTTCGCA | -0.0412 E-score |
| AATTTTGT | 0.23 E-score |
| ACCTCTCT | -0.205 E-score |
| AACTACGT | -0.0467 E-score |
| CAGAGATG | 0.0342 E-score |
| ATTCAAGG | -0.0986 E-score |
| AGTTATGA | 0.0524 E-score |
| ACGCTTAT | 0.0509 E-score |
| AACTGCAT | -0.118 E-score |
| ACCATTAT | 0.149 E-score |
| ACGACGCA | -0.184 E-score |
| ACGCAATG | 0.0342 E-score |
| ATTGCCCG | 0.123 E-score |
| AAGTCAAT | -0.112 E-score |
| ATAGCATA | 0.0342 E-score |
| CAGACTAG | -0.0574 E-score |
| AGTAGGTC | -0.265 E-score |
| ATGAGTCG | -0.0316 E-score |
| ACTTTCTG | 0.0519 E-score |
| ATAGGTCA | -0.108 E-score |
| AAACTTCA | -0.0414 E-score |

| Sequence | binding signal |
| --- | --- |
| AGGTCTAT | -0.104 E-score |
| ACCTCGTA | -0.0277 E-score |
| CACGCCTG | -0.229 E-score |
| AATCTCAT | 0.42 E-score |
| AAAACTTT | 0.0231 E-score |
| AGAATTTC | 0.267 E-score |
| ATCGGCTC | -0.0233 E-score |
| AGATCCAA | 0.262 E-score |
| AAGGTCGC | -0.178 E-score |
| AGTAAATG | 0.0793 E-score |
| AAGATACG | 0.319 E-score |
| AACTCGGT | -0.112 E-score |
| AAGGTGAG | -0.138 E-score |
| AATTCCGA | 0.0521 E-score |
| AACTTATT | 0.0455 E-score |
| ATACAAAT | 0.281 E-score |
| ATTGAACA | -0.0807 E-score |
| CAACAGTC | -0.16 E-score |
| AAGTTCCC | -0.16 E-score |
| ATCTAGCG | 0.18 E-score |
| AACCATAA | 0.115 E-score |
| ATGTGGGA | 0.00897 E-score |
| AGTACGAA | 0.187 E-score |
| AGCGTAGA | 0.0679 E-score |

| Sequence | binding signal |
| --- | --- |
| CACCAGGA | 0.0833 E-score |
| AACCAGAC | -0.149 E-score |
| ACCTGGCG | -0.239 E-score |
| CAAATCCC | 0.315 E-score |
| ACCAAGAT | 0.289 E-score |
| AATAAAGG | 0.103 E-score |
| AAGATAAA | 0.0898 E-score |
| AGGCTCCA | -0.113 E-score |
| AAAATTAT | 0.116 E-score |
| AGCCACGA | -0.0211 E-score |
| AATGTGCG | 0.00168 E-score |
| AAGTACAA | 0.0312 E-score |
| AAACCATA | 0.0967 E-score |
| CAGACTGG | -0.157 E-score |
| ACTACTAC | 0.0106 E-score |
| AATGCGAT | 0.246 E-score |
| AAAGTTCG | 0.0661 E-score |
| ATTCTAGA | 0.2 E-score |
| ATGTAGGA | 0.112 E-score |
| AACGCCTT | -0.19 E-score |
| AGGGACAC | -0.262 E-score |
| AGATACAA | 0.0386 E-score |
